Where no end group is shown, it is not given here.
Columns and labels:
[1] = tested on: MCF-7 cells; conditions: previous reports; cited from earlier work
[2] = tested on: MDA-MB-231 cells; assay: WST-8 cell viability, exogenously delivered TAT-conjugated peptides, MDA-MB-231; type: cell-based; conditions: TAT-conjugated peptide 0-100 μM, 24 hours
Description: (§1) Engineering Peptides for Exogenous Delivery. Peptides shown in FIG. 3B were fused to an N-terminal cell penetrating motif via a (GS)3 linker sequence (Table 5) and chemically synthesized by GenScript's Custom Peptide Synthesis service at crude purity. For dose response experiments, cells were plated in 96 well plates (n=4) at 50% confluency and peptides were added at the indicated concentrations with cell viability quantified after 24hrs via the WST-8 assay. Cell viability was normalized to that of an untreated control on the same plate.
(§2) Engineering Peptides for Exogenous Delivery. Peptides shown in FIG. 2D were fused to an N-terminal cell penetrating motif via a (GS)3 linker sequence and chemically synthesized by GenScript's Custom Peptide Synthesis service at crude purity. For dose response experiments, cells were plated in 96 well plates (n=4) at 50% confluency and peptides were added at the indicated concentrations with cell viability quantified after 24hrs via the WST-8 assay. Cell viability was normalized to that of an untreated control on the same plate.
(§3) After validating the inhibitory activity of these peptide constructs when overexpressed genetically, experiments were performed to see if the peptides could be exogenously delivered as anti-cancer therapeutics. […] (FIG. 4C, Table 6). […]

[3] = tested on: Hs578T cells; assay: WST-8 cell viability, exogenously delivered TAT-conjugated peptides, Hs578T; type: cell-based; conditions: TAT-conjugated peptide 0-100 μM, 24 hours
Description: as §1, §2, §3

[4] = tested on: Hs578T cells; assay: RNA-sequencing of Hs578T cells overexpressing gene fragment; conditions: FDR=0.008 and FDR=0.058 respectively

Row | Molecule | sensitivity of MCF-7 cells compared with Hs578T and MDA-MB-231 cells [1] | cell viability / growth inhibition [2] | cell viability / growth inhibition [3] | GSEA of gene sets responding to irreversible EGFR inhibitor [4]
1 | COc1cc2ncnc(Nc3ccc(F)c(Cl)c3)c2cc1OCCCN1CCOCC1 [Gefitinib] | less sensitive |  |  | 
2 | MEAPNQALLRILKETEFKKIKVLGSGAFGTVYKGLWIPEGE [EGFR-697] |  | inhibit the growth of Hs578T and MDA-MB-231 cells in a dose dependent manner | inhibit the growth of Hs578T and MDA-MB-231 cells in a dose dependent manner | downregulation of genes identified as downregulated in response to chemical EGFR inhibition, and upregulation of genes identified as upregulated
3 | MRNGMSLHDCLMKALKVRGLQPECCAVFRLLHEHKGKKARL (cysteines drawn unpaired) [RAF1-73] |  | inhibit the growth of Hs578T and MDA-MB-231 cells in a dose dependent manner | inhibit the growth of Hs578T and MDA-MB-231 cells in a dose dependent manner | 
